Experiment [1] concerns the target Lamellipodin (Lpd), endogenous in HEK293, A431 and HeLa cells (human (endogenous in HEK293, A431, HeLa)) (UniProt Q70E73). Nature of the experiment: co-IP; endogenous proteins, HeLa cell lysate; IP with Lpd- or EGFR-specific antibodies or IgG control; cells stimulated with 2 ng/ml EGF for 5 min or not stimulated.
The target is the same in experiment [2]. The experiment in a line: co-IP; endogenous proteins, A431 cell lysate; IP with Lpd- or EGFR-specific antibodies or IgG control.
Experiment [3] has the same target. The experiment in a line: co-IP; HEK293 cells overexpressing EGFR-GFP; IP of endogenous Lpd with Lpd-specific antibodies or control IgG; EGFR detected with anti-GFP antibodies.
For experiment [4], the target named is EGFR, endogenous in A431 and HeLa cells (human (endogenous in A431, HeLa)) (UniProt P00533). The experiment in a line: co-IP; endogenous proteins, HeLa cell lysate; IP with Lpd- or EGFR-specific antibodies or IgG control; cells stimulated with 2 ng/ml EGF for 5 min or not stimulated.
For experiment [5] the target is unchanged. Nature of the experiment: co-IP; endogenous proteins, A431 cell lysate; IP with Lpd- or EGFR-specific antibodies or IgG control.
In experiment [6] the target is GST-endophilin A3-SH3 (UniProt Q99963). Nature of the experiment: pull-down; purified GST-SH3 domains on glutathione beads, NIH/3T3 cell lysate; lysis buffer 50 mM Tris-HCl pH 7.4, 200 mM NaCl, 1% NP-40, 2 mM MgCl2, 10% glycerol; western blot; only the target purified. (In general: Immunoblotting shows a protein as a band on a membrane.)
For experiment [7], the target named is GST-endophilin A1-SH3 (UniProt Q99962). The description is as above.
Experiment [8] has as its target T1, GST-endophilin A2-SH3 (UniProt O35964).
T1 sequence: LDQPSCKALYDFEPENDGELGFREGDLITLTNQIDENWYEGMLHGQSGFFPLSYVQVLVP
The description is as above.

Amino acid sequences for entries named in this document (tags omitted). Residues count along the entry.
UniProt Q99963, residues 285-344: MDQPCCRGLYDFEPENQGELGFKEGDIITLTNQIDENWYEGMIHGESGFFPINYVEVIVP
UniProt Q99962, residues 290-349: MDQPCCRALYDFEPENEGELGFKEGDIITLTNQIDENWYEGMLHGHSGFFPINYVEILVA
UniProt Q62421: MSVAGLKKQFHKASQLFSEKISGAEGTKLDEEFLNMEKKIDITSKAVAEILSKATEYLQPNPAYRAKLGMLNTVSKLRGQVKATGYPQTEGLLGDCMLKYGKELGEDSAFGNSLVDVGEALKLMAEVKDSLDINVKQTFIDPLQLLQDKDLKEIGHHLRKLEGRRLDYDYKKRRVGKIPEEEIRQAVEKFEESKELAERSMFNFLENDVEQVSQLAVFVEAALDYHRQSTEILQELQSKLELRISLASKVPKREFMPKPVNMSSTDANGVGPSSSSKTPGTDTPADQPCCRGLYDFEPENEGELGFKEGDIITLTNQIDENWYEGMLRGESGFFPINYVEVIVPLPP

The target in experiment [9] is endophilin A3, endogenous in NIH/3T3 cells (mouse (endogenous in NIH/3T3)) (UniProt Q62421). Nature of the experiment: co-IP; endogenous proteins, NIH/3T3 cell lysate; IP with Endo3-specific antibodies or control IgG; blot probed with anti-Lpd antibodies.

These are yes or no findings as the source states them, for the method shown. In cells and extracts the contact can be indirect. Some binding calls cover weakened binding; strength is not graded here. For part of these data: Sequences can lack the tags named with a protein.

In the case of “EGFR, endogenous in A431 and HeLa cells (from UniProt P00533 25-1210) (receptor)”, the binding result in [1] and in [2] was “binds” in each case.

On to “EGFR-GFP (from UniProt P00533 25-1210) (receptor)”, for which the binding entry in experiment [3] was “binds”.

Turning to “Lamellipodin (Lpd), endogenous in HEK293, A431 and HeLa cells (from UniProt Q70E73 1-1250)”, the binding result in experiment [4] and in [5] was “binds” in each case.

B1: RIAM, endogenous in NIH/3T3 cells (protein, UniProt Q8R5A3 1-670)
chain: MGESNEDIDQMFSTLLGEMDLLTQSLGVDTLPPPDPNPPREEFNYTVGFKDLNESLNALEDQDLDALMADLVADISEAEQRTIQAQKESSQNQDRFALLRASDGQGTASGGYGASAAAIDVSHHEEALPPPPVEPMLDLLPPPPPPPPPELLSKEEEEAKAKADKIKLALEKLKEAKVKKLVVKVHMDDSSTKSLMVDERQLARDVLDNLFEKTHCDCNVDWCLYEIYPELQIERVFEDHENVVEVLSDWTRDTENKVLFLEKEERYAVFKNPQNFYLDNKGKKENKETNEKMNAKNKEYLLEESFCGTSIIVPELEGALYLKEDGKKSWKRRYFLLRASGIYYVPKGKTKTSRDLACFIQFENVNIYYGIQCKMKYKAPTDHCFVLKHPQIQKESQYIKYLCCDDARTLSQWVMGIRIAKYGKTLYDNYQRAVARAGLASRWTNLGTVGTPMPAQPSTVSSGLKTGTSQPNGQMPQAIPSAGPPLQEAQTQIETTKDEKQGLGNHSPGATRENHRPKSSLPPPPPPVRRSSDTCGSPALPSKVKGPGTCTFPHPPENFLPPPPPPPPEEDNSGLLPPPPPPPYLEEPPDFVPPPPPPAAVEDSALPPPPPPPPCLSQEITKSSPLPPKKPLVPPKRQENQGLPGAPGNSEQDFMSDLMKALQKKRGNIP
As for B1, the binding result in experiment [6], in experiment [7] and in experiment [8] was “no binding” in each case.

B2: Lamellipodin (Lpd), endogenous in NIH/3T3 cells (protein, UniProt F2Z3U3 1-1266)
chain: MEQLSDEEIDHGAEEDSDKEDQDLDKMFGAWLGELDRLTQSLDSDKPKEPVKRSPLRQETNMANFSYRFSIYNLNEALNQGETVDLDALMADLCSIEQELSSIGSGNSKRQVTEPKVPQKLPAGRHTSKHGTLRGPSSSSNRTTKPSHANYSLDDITAQLEQASLSMDEAAQQSLVEDPKPLVTNQHRRTASAGTVSDAEARSISNSSRSSITSAASSMDSLDIDKVTRPQELDLTTHQGQPITEEEQAAKLKAEKIRVALEKIKEAQVKKLVIRVHMSDDSSKTMMVDERQTVRQVLDNLMDKSHCGYSLDWSLVETISELQMERIFEDHENLVENLLNWTRDSQNKLIFMERIEKYALFKNPQNYLLGKKETAEMADRNKEVLLEECFCGSSVTVPEIEGVLWLKDDGKKSWKKRYFLLRASGIYYVPKGKAKVSRDLVCFLQLDHVNVYYGQDYRNKYKAPTDCCLALKHPQIQKKSQYIKYLCCDDARTLHQWVNGIRIAKYGKQLYTNYQEALKRTESAYDWTSLSSSSIKSGSSSSSIPESQSNHSNQSDSGVSDTLPTGHIRSQSTVSSIFSEAWKRGTQLEESSKARMESMNRSYTSLMPPLSPQTKIITPYTASQPSPPLPPPPPPPPPPPPPPPPPPPPLPSQSAPSSGSAATMFVKYSTITRLQNAAQHSGTLFKSPTPPAMQPLPLASQSKAQIVVPPNGVIPPPPPPPPPPTPGSAMAQLKPVPCAPSLPQFSPQPPPLKIHQVQHLPQTAPPTPPPAPPITATVPPQAPPKPLVTIPPSASTKTVSPVVAQAVPPTPAPPVPPAKKQPVFPVSHIPPTPPVQPTPHPPPTLPKQQSFGVKPPPSPLSPVPSVVKQIASQFPPPPTPPPVDSQPLKSLPASGTPQSPPAVKAKPKWQPSSIPVPSPDFPPPPPESSLVFPPPPPPAPAPAPPPPPPPPPPPPPVPPTASPTPDKGGSPGKKTSKMSSPGGKKPPPTPQRNSSIKSGSCAEHPEPKRPSVDSLVSKFAPPAESGSPSKETPPPPAAPPKPGKLHLSGVNLPGIHQQGIVSAKASVLSGRGKDVVVEFPSPPSDSDFPPPPPEIELPLPPIEIPAVFSGNTSPKVAVVNPQPQLWSKTSVKKAPPPTRPKRNDSTRLTQADISEQPAMTTVVPQVPTSPKSSLSVQPGFLADLNRTLQRKSITRHGSLSSSRMSRAEPTATMDDMALPPPPPELLSDQQKAGFGGSHISGYATLRRGPPPAPPKRDQNTKLSRDW
On to B2, for which the binding result in experiment [6], in experiment [7], in [8] and in [9] was “binds” each time.

Source of the values: paper PMC3801443.
